Hit rate of the full screen: of about 410,000 compounds, about 7,200 (1.8%) were called active. Inconclusive results, whose numbers are uncertain, are shown with a selection of clear calls. The call rests on the fitted dose curve; in most records, active means well fitted activation curve with a large enough effect; inconclusive means small, poorly fitted or top-dose-only effect, or another doubt; inactive means no such curve, though single readings can be large or run the other way. Potencies of inconclusive entries are left out as doubtful fits.
experiment: qHTS of TDP-43 Inhibitors; conditions: TDP-43 expressing yeast growth rescue, BacTiter-Glo, 24 h; growth rescue (activation): at 46.1 µM (top of the series) unless noted; further: nearly all actives have a fitted effect of over 50% in size; on growth rescue (activation): % of control where 0% means no effect
Summary of the method: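 Luminescence from BacTiter-Glo reports growth of TDP-43-expressing yeast after 24 hr at 30 deg C with compound. Cells were raffinose-pregrown to mid-log, then seeded in galactose medium at OD600=0.02.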
Potency means the concentration at half of the fitted maximal effect; tags describe the fitted curve by direction and shape.

Row | Compound | growth rescue (activation) | Potency
1 | CC1=C(C)CC2C(=O)N(c3cccc4ccccc34)C(=O)C2C1 (centres undefined) | inconclusive: -92.4% [activator] | –
2 | CC(C)(C)NC(=O)Cn1nc(C(F)(F)F)c2c1CCCC2 | – | inconclusive [activator, single point]
3 | CCC(C)NC(=O)c1cnn(-c2ccc(Cl)cc2)c1C1CCN(C(=O)OC(C)(C)C)CC1 (centres undefined) | – | inconclusive [activator, partial curve]
4 | CC1(C(=O)Nc2ccc(Cl)c(Cl)c2)CCN1C(=O)CC1CCCC1 (centres undefined) | – | inconclusive [activator, single point]
5 | CSc1ncccc1C(=O)Nc1nc2ccc(F)cc2s1 | – | inconclusive [activator, partial curve]
6 | Cc1cccc(C(=O)NC(=S)NCc2ccccc2)c1 | – | inconclusive [activator, single point]
7 | Cc1ccc(C2CC(c3cccc(C)c3)n3ncnc3N2)cc1 (centres undefined) | – | inconclusive [activator, single point]
8 | CC(C)(C)C(=O)Nc1cc2nn(-c3ccccc3)nc2cc1Cl | – | inconclusive [activator, single point]
9 | N#Cc1c(C(F)(F)F)cc(-c2ccccc2)[nH]c1=O | – | inactive
10 | Nc1ccc2oc(=O)c3ccccc3c2c1 | – | active: 12.6 µM
11 | Cc1ccc(S(=O)(=O)NCC(=O)N(CC(=O)NC2CCCC2)c2ccc3c(c2)OCCO3)cc1 | – | inconclusive [activator, single point]
12 | O=C(/C=C/c1ccc(O)c(O)c1)c1ccccc1O | – | inconclusive [activator, partial curve]
13 | CCc1nnc(NC(=O)C2Cc3ccccc3CN2S(=O)(=O)c2cccs2)s1 (centres undefined) | – | inactive
14 | COc1ccccc1CNC(=O)COC(=O)Cc1ccc(Br)cc1 | – | inconclusive [activator, partial curve, poor fit]
15 | Cc1cccc(-c2nc(SCC(=O)NCc3ccco3)c3c(=O)n(C)c(=O)n(C)c3n2)c1 | inactive: 24.7% [at 9.22 µM] | –
16 | CCCCNC(=S)NCc1ccc2[nH]c(C)cc2c1 | – | inconclusive [activator, partial curve]
17 | Cc1ccc(-n2nc3c(c2NC(=O)c2ccc(F)c(F)c2)CS(=O)(=O)C3)cc1 | – | inactive
18 | CCOC(=O)C(=O)Nc1c(C(=O)Nc2cccc(F)c2)oc2ccccc12 | – | inactive
19 | S=c1[nH]nc(-c2ccc(Cl)cc2Cl)n1Cc1ccccc1 | – | inconclusive [activator, single point]
20 | COc1ccccc1Cc1c(-c2cccc(Br)c2)nc2ccc(Br)cn12 | – | inconclusive [activator, single point]
21 | COc1ccccc1N1CCN(c2nc3c(S(=O)(=O)c4ccc(C)c(C)c4)nnn3c3ccc(Cl)cc23)CC1 | – | inactive
22 | CCOC(=O)c1c(NC(=O)CSc2nc3ccccc3c(=O)n2-c2ccccc2)sc(C(C)=O)c1C | – | inactive
23 | Cc1nn2c(NCc3ccccn3)cc(C(C)(C)C)nc2c1-c1ccccc1 | inconclusive: -59.8% [activator] | –
24 | Cc1ccc2nc(NC(=O)CCn3c(=O)sc4ccccc43)sc2c1 | – | active: 20 µM
25 | CCOC(=O)c1cccc(NC(=O)Cn2nc(C)n3cccc3c2=O)c1 | – | inactive

Row | Compound | growth rescue (activation) | Potency
26 | Cc1ccc(Cn2c(C(CO)Nc3nc(-c4ccc(Cl)c([N+](=O)[O-])c4)cs3)nc3ccccc32)cc1 (centres undefined) | – | active: 25.1 µM
27 | CCOC(=O)c1[nH]n(-c2ccc(Cl)cc2)c(=O)c1C | – | inconclusive [activator, single point]
28 | CCOC(=S)SCC(=O)N1CCc2ccccc2C1C1C(=O)CC(C)(C)CC1=O (centres undefined) | – | inconclusive [activator, partial curve]
29 | Cc1cc(Nc2ccccc2)n(C(=O)c2ccccc2)n1 | – | inconclusive [activator, partial curve]
30 | Cc1ccc(S(=O)(=O)N2CCN(c3ncccn3)CC2)c(C)c1 | – | inconclusive [activator, partial curve]
31 | CCOC(=O)c1cc(OCC)c2c(ccc3ccccc32)n1 | – | inconclusive [activator, partial curve]
32 | COc1ccc(OC)c(C2C(C(=O)Nc3ccccc3OC)=C(C)Nc3c(C(=O)Nc4ccc(F)cc4)cnn32)c1 (centres undefined) | – | inactive
33 | CCOc1ccc(C(=O)N2CCN(c3ncccn3)CC2)cc1 | – | inactive
34 | O=C(c1cccc(F)c1)N1CCC(c2nc3ccccc3s2)CC1 | – | active: 12.6 µM
35 | COc1cccc(C(=O)NCCSCc2c(F)cccc2Cl)c1 | – | active: 11.2 µM
36 | COC(=O)C[C@H]1C=C[C@H](NC(=O)Nc2ccccc2)[C@@H](CO)O1 | – | inactive
37 | Brc1ccc(OCCCOc2cccc3cccnc23)cc1 | – | inconclusive [activator, single point]
38 | O=C1NN=C(c2ccc(Cl)cc2)CC1c1cccc(Cl)c1 (centres undefined) | – | inconclusive [activator, single point]
39 | COc1cccc(/C=N/Nc2cc(-n3nc(C)cc3-c3ccccc3)ncn2)c1O | – | inconclusive [activator, partial curve]
40 | O=C(/C=C/c1ccc(Cl)cc1Cl)N1CCN(c2ccc([N+](=O)[O-])c(N3CCOCC3)c2)CC1 | – | inconclusive [activator, partial curve]
41 | CCCC(C)(C)C(=O)N1CCC1(C)C(=O)Nc1cccc2ccccc12 (centres undefined) | – | inconclusive [activator, single point]
42 | O=C(c1ccccc1)c1ccc(Oc2ccc([N+](=O)[O-])cc2[N+](=O)[O-])cc1 | – | inconclusive [activator, partial curve]
43 | CC(C)(C)OC(=O)N1CCC(c2c(C(=O)NCc3ccc4c(c3)OCO4)cnn2-c2ccccc2Cl)CC1 | – | inactive
44 | COc1cc(OC)cc(C2=Cc3ccccc3C(CC(C)=O)N2c2ccc(C#CCCO)cc2)c1 (centres undefined) | – | inconclusive [activator, partial curve]
45 | CC(Oc1ccc(Cl)cc1Cl)C(=O)/C=C/N(C)C (centres undefined) | inconclusive: -75.1% [activator] | –
46 | CCNC(=S)N=Nc1c(O)[nH]c2ccc([N+](=O)[O-])cc12 | – | inactive
47 | Cc1ccc(Cl)cc1N1CCN(C(=O)c2cccn2-c2nnc(N3CCCC3)s2)CC1 | – | inactive
48 | O=C(Nc1ccc(-c2nc3ccccc3o2)cc1)c1ccc2c(c1)OCO2 | – | inactive
49 | COc1ccc(-c2noc(CCCC(=O)NC3CCCCC3)n2)cc1 | – | inconclusive [activator, single point]
50 | O=C(Nc1cccc(C(F)(F)F)c1)C1Cc2c(-c3ccccc3)ccnc2O1 (centres undefined) | – | active: 35.5 µM

Row | Compound | growth rescue (activation) | Potency
51 | CCCCN(C)C(=O)c1cc2c(Cl)nc3ccccc3c2s1 | – | inconclusive [activator, single point]
52 | c1ccc(-c2csc(Nc3ccc4c(c3)OCO4)n2)cc1 | – | active: 14.1 µM
53 | N#Cc1ccc(C(=O)Nc2nnc(-c3cccs3)o2)cc1 | – | inactive
54 | CCOC(=O)CN1C(=O)S/C(=C/c2ccc(C)o2)C1=O | – | active: 12.6 µM
55 | O=C(NCCCNc1ccc([N+](=O)[O-])cc1Cl)c1ccccc1F | – | inconclusive [activator, single point]
56 | COc1ccccc1-c1cc2nc(NCCc3ccc(S(N)(=O)=O)cc3)ccn2n1 | – | inconclusive [activator, partial curve, poor fit]
57 | COc1ccc(OCc2cc(C(=O)NCC3(C)COC3)no2)c(Cl)c1 | – | inconclusive [activator, single point]
58 | COc1ccc(Cc2c(-c3cccc(Br)c3)nc3ccc(Cl)cn23)c(C)c1 | – | inconclusive [activator, partial curve]
59 | O=[N+]([O-])c1nn(-c2ccc(Cl)cc2)n(O)c1=NCc1ccncc1 | – | active: 11.2 µM
60 | O=C(Cc1cccs1)NC1CC(=O)N(c2ccc(Cl)cc2)C1 (centres undefined) | – | inactive
61 | COC(=O)N[C@@H]1C[C@H]2[C@@H]3CC[C@H]4C[C@@H](OC)CC[C@]4(C)[C@H]3CC[C@@]12C | – | active: 28.2 µM
62 | COc1ccc(N2CCN(C(=O)NCc3noc4ccccc34)CC2)cc1 | – | inconclusive [activator, partial curve]
63 | Cc1ccc2c(c1)OC(=O)CC2c1ccccc1 (centres undefined) | – | inconclusive [activator, partial curve]
64 | O=c1oc2ccccc2cc1-c1nc(-c2cccs2)cs1 | – | inactive
65 | Cc1ccc(-n2c(SCC(=O)Nc3cccc(F)c3)nc3c(oc4ccccc43)c2=O)cc1C | – | inactive
66 | Cc1noc(C)c1COC(=O)CCCOc1ccc(Cl)cc1Cl | – | inconclusive [activator, single point]
67 | Cc1c(Nc2cc(Cl)c3nonc3c2[N+](=O)[O-])c(=O)n(-c2ccccc2)n1C | – | inconclusive [activator, single point]
68 | CCOc1ccc(CNC(=S)Nc2ccccc2)cc1Cl | – | inconclusive [activator, single point]
69 | CCOC(=O)C1=C(CC)OC(N)=C(C#N)C1c1ccc(F)cc1F (centres undefined) | – | inactive
70 | C#CCOc1ccc2c(C)cc(=O)oc2c1 | – | active: 20 µM
71 | CN(c1ccccc1C(=O)Nc1cccc(Br)c1)S(=O)(=O)c1ccccc1 | – | active: 28.2 µM
72 | CC1CCN(C(=O)CSc2ccc(-c3ccccc3)nn2)CC1 | – | active: 17.8 µM
73 | Cc1csc(NC(=O)C2=COCCO2)n1 | – | inconclusive [activator, single point]
74 | O=C1c2cccc3c([N+](=O)[O-])ccc(c23)C(=O)N1c1ccc(Cl)cn1 | – | inconclusive [activator, single point]

Source: PubChem BioAssay AID652104 (National Center for Advancing Translational Sciences (NCATS), 2013)
